# In the supplement of paper PMC8728848:
# This is one part of the list.
# B1: MGL6A (Homo sapiens) (protein)
# chain: MTRTYENFQYLENKVKVQGFKNGPLPLQSLLQRLCSGPCHLLLSLGLGLLLLVIICVVGFQNSKFQRDLVTLRTDFSNFTSNTVAEIQALTSQGSSLEETIASLKAEVEGFKQERQAVHSEMLLRVQQLVQDLKKLTCQVATLNNNGEEASTEGTCCPVNWVEHQDSCYWFSHSGMSWAEAEKYCQLKNAHLVVINSREEQNFVQKYLGSAYTWMGLSDPEGAWKWVDGTDYATGFQNWKPGQPDDWQGHGLGGGEDCAHFHPDGRWNDDVCQRPYHWVCEAGLGQTSQESH
# Assays:
# Assay in all cases: glycan array binding signal (z-score within array); higher = stronger binding
# Settings in all cases: glycan notation: IUPAC condensed, linker removed
# [1] = biological target: GlcNAc3Prop(b1-4)GlcNAc
# Outline: (§1)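 Glycan array data were curated from 3228 arrays in the Consortium for Functional Glycomics database and kept only where the protein sequence was available. Glycan names were converted to IUPAC-condensed notation, and columns mapping to the same glycan were averaged. The binding signal is a within-array Z-score, averaged across arrays of the same protein sequence at different concentrations or buffers and across linkers. Negative Z-scores can be read as non-binding.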
# [2] = biological target: GlcNAc6S(b1-3)Gal(b1-4)GlcNAc
# Outline: as §1
# [3] = biological target: Kdn(a2-3)Gal(b1-3)GalNAc
# Outline: as §1
# [4] = biological target: Kdn(a2-3)Gal(b1-3)GlcNAc
# Outline: as §1
# [5] = biological target: Kdn(a2-3)Gal(b1-4)Glc
# Outline: as §1
# [6] = biological target: Kdn(a2-3)Gal(b1-4)GlcNAc
# Outline: as §1
# [7] = biological target: Kdn(a2-3)Gal(b1-4)[Fuc(a1-3)]GlcNAc
# Outline: as §1
# [8] = biological target: Kdn(a2-6)Gal(b1-4)GlcNAc
# Outline: as §1
# [9] = biological target: Man(a1-2)Man(a1-2)Man(a1-3)Man
# Outline: as §1
# [10] = biological target: Man(a1-2)Man(a1-2)Man(a1-6)[Man(a1-3)]Man
# Outline: as §1
# [11] = biological target: Man(a1-2)Man(a1-3)Man
# Outline: as §1
# [12] = biological target: Man(a1-2)Man(a1-3)[Man(a1-2)Man(a1-6)]Man
# Outline: as §1
# [13] = biological target: Man(a1-2)Man(a1-3)[Man(a1-2)Man(a1-6)]Man(a1-6)[Man(a1-2)Man(a1-2)Man(a1-3)]Man
# Outline: as §1
# [14] = biological target: Man(a1-2)Man(a1-3)[Man(a1-2)Man(a1-6)]Man(a1-6)[Man(a1-2)Man(a1-2)Man(a1-3)]Man(b1-4)GlcNAc(b1-4)GlcNAc
# Outline: as §1
# [15] = biological target: Man(a1-2)Man(a1-3)[Man(a1-6)]Man(a1-6)[Man(a1-2)Man(a1-3)]Man(b1-4)GlcNAc(b1-4)GlcNAc
# Outline: as §1
# [16] = biological target: Man(a1-2)Man(a1-6)[Man(a1-3)]Man(a1-6)[Man(a1-2)Man(a1-2)Man(a1-3)]Man
# Outline: as §1
# [17] = biological target: Man(a1-2)Man(a1-6)[Man(a1-3)]Man(a1-6)[Man(a1-2)Man(a1-2)Man(a1-3)]Man(b1-4)GlcNAc(b1-4)GlcNAc
# Outline: as §1
# [18] = biological target: Man(a1-3)[Man(a1-6)]Man
# Outline: as §1
# [19] = biological target: Man(a1-3)[Man(a1-6)]Man(a1-6)[Man(a1-2)Man(a1-3)]Man(b1-4)GlcNAc(b1-4)GlcNAc
# Outline: as §1
# [20] = biological target: Man(a1-3)[Man(a1-6)]Man(a1-6)[Man(a1-3)]Man
# Outline: as §1
# [21] = biological target: Man(a1-3)[Man(a1-6)]Man(a1-6)[Man(a1-3)]Man(b1-4)GlcNAc(b1-4)GlcNAc
# Outline: as §1
# [22] = biological target: Man(a1-3)[Man(a1-6)]Man(b1-4)GlcNAc(b1-4)GlcNAc
# Outline: as §1
# [23] = biological target: Man(a1-3)[Man(a1-6)]Man(b1-4)GlcNAc(b1-4)[Fuc(a1-6)]GlcNAc
# Outline: as §1
# [24] = biological target: Man(a1-6)Man
# Outline: as §1
# [25] = biological target: Man(b1-4)GlcNAc
# Outline: as §1
# [26] = biological target: MurNAc(b1-4)GlcNAc
# Outline: as §1
# [27] = biological target: Neu5Ac(a2-3)Gal
# Outline: as §1
# [28] = biological target: Neu5Ac(a2-3)Gal(b1-3)GalNAc
# Outline: as §1
# [29] = biological target: Neu5Ac(a2-3)Gal(b1-3)GalNAc(b1-3)Gal(a1-4)Gal(b1-4)Glc
# Outline: as §1
# [30] = biological target: Neu5Ac(a2-3)Gal(b1-3)GalNAc(b1-3)Gal(b1-4)GlcNAc
# Outline: as §1
# [31] = biological target: Neu5Ac(a2-3)Gal(b1-3)GalNAc(b1-4)[Neu5Ac(a2-3)]Gal(b1-4)Glc
# Outline: as §1
# [32] = biological target: Neu5Ac(a2-3)Gal(b1-3)GalNAc(b1-4)[Neu5Ac(a2-8)Neu5Ac(a2-3)]Gal(b1-4)Glc
# Outline: as §1
# [33] = biological target: Neu5Ac(a2-3)Gal(b1-3)GalNAc6S
# Outline: as §1
# [34] = biological target: Neu5Ac(a2-3)Gal(b1-3)GlcNAc
# Outline: as §1
# [35] = biological target: Neu5Ac(a2-3)Gal(b1-3)GlcNAc(b1-2)Man
# Outline: as §1
# [36] = biological target: Neu5Ac(a2-3)Gal(b1-3)GlcNAc(b1-2)Man(a1-3)[GlcNAc(b1-4)][Neu5Ac(a2-3)Gal(b1-3)GlcNAc(b1-2)Man(a1-6)]Man(b1-4)GlcNAc(b1-4)GlcNAc
# Outline: as §1
# [37] = biological target: Neu5Ac(a2-3)Gal(b1-3)GlcNAc(b1-2)Man(a1-3)[Neu5Ac(a2-3)Gal(b1-3)GlcNAc(b1-2)Man(a1-6)]Man(b1-4)GlcNAc(b1-4)GlcNAc
# Outline: as §1
# [38] = biological target: Neu5Ac(a2-3)Gal(b1-3)GlcNAc(b1-2)[Neu5Ac(a2-3)Gal(b1-3)GlcNAc(b1-4)]Man(a1-6)[Neu5Ac(a2-3)Gal(b1-3)GlcNAc(b1-2)Man(a1-3)]Man(b1-4)GlcNAc(b1-4)GlcNAc
# Outline: as §1
binder,measurement,setting,value
B1,glycan array binding signal (z-score),[1],-0.542
same,glycan array binding signal (z-score),[2],-0.213
same,glycan array binding signal (z-score),[3],-0.265
same,glycan array binding signal (z-score),[4],-0.237
same,glycan array binding signal (z-score),[5],-0.267
same,glycan array binding signal (z-score),[6],-0.282
same,glycan array binding signal (z-score),[7],-0.251
same,glycan array binding signal (z-score),[8],-0.316
same,glycan array binding signal (z-score),[9],-0.301
same,glycan array binding signal (z-score),[10],-0.283
same,glycan array binding signal (z-score),[11],-0.155
same,glycan array binding signal (z-score),[12],-0.261
same,glycan array binding signal (z-score),[13],-0.231
same,glycan array binding signal (z-score),[14],-0.153
same,glycan array binding signal (z-score),[15],-0.224
same,glycan array binding signal (z-score),[16],-0.288
same,glycan array binding signal (z-score),[17],-0.211
same,glycan array binding signal (z-score),[18],-0.22
same,glycan array binding signal (z-score),[19],-0.017
same,glycan array binding signal (z-score),[20],-0.286
same,glycan array binding signal (z-score),[21],-0.322
same,glycan array binding signal (z-score),[22],-0.224
same,glycan array binding signal (z-score),[23],-0.253
same,glycan array binding signal (z-score),[24],-0.275
same,glycan array binding signal (z-score),[25],-0.258
same,glycan array binding signal (z-score),[26],-0.247
same,glycan array binding signal (z-score),[27],-0.26
same,glycan array binding signal (z-score),[28],-0.01
same,glycan array binding signal (z-score),[29],-0.292
same,glycan array binding signal (z-score),[30],-0.144
same,glycan array binding signal (z-score),[31],-0.142
same,glycan array binding signal (z-score),[32],-0.24
same,glycan array binding signal (z-score),[33],-0.328
same,glycan array binding signal (z-score),[34],-0.268
same,glycan array binding signal (z-score),[35],-0.281
same,glycan array binding signal (z-score),[36],-0.268
same,glycan array binding signal (z-score),[37],-0.272
same,glycan array binding signal (z-score),[38],-0.268
